According to PubChem BioAssay AID1508623 (National Center for Advancing Translational Sciences (NCATS), 2021):
About 450 (0.94%) of roughly 48,000 compounds were called active. Roughly 19% stayed inconclusive and do not appear here. The call rests on the fitted dose curve; in most records, active means well fitted inhibition curve with a large enough effect; inconclusive means small, poorly fitted or top-dose-only effect; inactive means no such curve, though single readings can be large or run the other way. This is one part of the list.

Assay: Primary qHTS for Identification of Small Molecule Inhibitors of Huntingtin Promoter Activity; further: nearly all actives have a fitted effect of over 50% in size
Details: HEK293 HTT promoter firefly luciferase reporter (activity 0% = vehicle and -100% = no light), 24 h; series mostly up to 57.5 µM; activity change, negative = inhibition: at the top concentration
Procedure, shortened: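 Firefly luciferase readout (Dual-Glo, 10 min RT) after 24 h, 37 °C compound exposure (final up to 57.5 uM) of HEK293 reporter cells cultured 24 h beforehand; PTC124 at 50 uM final as control inhibitor; activity scaled vehicle 0%, zero RLU -100%.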
Potency means the concentration at half of the fitted maximal effect.

Compound	activity change, negative = inhibition	Potency
COc1cc(C(CC(=O)Nc2ncccc2C)N2Cc3ccccc3C2=O)cc(OC)c1OC (configuration not stated)	inactive: -14.3%	–
Cc1ccc(C(=O)N2CCC(C)CC2)cc1NC(=O)c1nsc2ccccc12	inactive: -30%	–
O=C(OCc1cc(=O)n2nc(C3CC3)sc2n1)c1ccc(NC(=O)c2ccccc2F)cc1	inactive: -5.86%	–
CCOc1ccc(Br)cc1C1NC(=O)c2c(sc3c2CCN(C)C3)N1 (configuration not stated)	inactive: 17.8% [at 11.5 µM]	–
CC1CCN(S(=O)(=O)c2ccc3nc(N4CCN(c5ccc(F)cc5)CC4)ccc3c2)CC1	inactive: 20.7%	–
COc1ccc(CCNc2ncnc3onc(C)c23)c(OC)c1	–	active: 1.26 µM
COCCCn1c(=N)c(C(=O)NC2CCCCC2)cc2c(=O)n3cc(C)ccc3nc21	inactive: 1.55%	–
CC1CCCCN1CCCNC(=O)Cn1ncc2c3ccccc3n(C)c2c1=O (configuration not stated)	inactive: 4.8%	–
Cc1ccc(S(=O)(=O)c2cc3cc(C(=O)Nc4ccc(C)cc4C)ccc3oc2=O)cc1	inactive: -17.9%	–
COc1cccc(C(=O)N(Cc2ccc(C)o2)C2CCS(=O)(=O)C2)c1 (configuration not stated)	inactive: -6.97%	–
COc1ccc(-c2cc(C(F)(F)F)nc(NCc3ccc(F)cc3)n2)cc1	inactive: -24.9%	–
O=C(COCc1cc(-c2cccs2)on1)Nc1cc(C(F)(F)F)ccc1Cl	inactive: -7.11%	–
CC(C)OCCCNC(=O)CCCN1C(=O)CCn2nc(-c3cccn3C)cc21	inactive: -13.2%	–
Cc1cc(C)c(NC(=O)CSc2nc3c([nH]c4ccccc43)c(=O)n2C)c(C)c1	inactive: 4.01%	–
O=C(CN1CCN(Cc2ccc3c(c2)OCO3)CC1)N1c2ccccc2Sc2ccccc21	inactive: 5.8%	–
Nc1ccn([C@@H]2O[C@H](CO)[C@@H](O)[C@H]2O)c(=O)n1	inactive: -19.3%	–
O=C(/C=C/c1ccccc1)OCc1ccccc1	inactive: 17.9%	–
COc1ccc(CCNC(=O)c2ccc(Cn3c(=O)[nH]c4cc(OC)c(OC)cc4c3=O)cc2)cc1OC	inactive: -8.23%	–
CCCOc1cccc(C2c3c(oc4ccc(F)cc4c3=O)C(=O)N2c2nc(C)c(C(C)=O)s2)c1 (configuration not stated)	inactive: -19.2%	–
CN1CCN(C(CNC(=O)c2c(F)cccc2F)c2ccc3c(c2)OCO3)CC1 (configuration not stated)	inactive: -3.21%	–
CCN(C(=O)Cn1ncc2c(=O)oc3ccccc3c21)c1ccccc1F	inactive: 1.03%	–
O=c1c2ccccc2n(Cc2cccc(Cl)c2)c(=O)n1Cc1ccccc1	inactive: -40.2%	–
COCCc1nn2c(=O)cc(COC(=O)c3ccc(Br)cc3)nc2s1	inactive: 9.6%	–
CCC(C)NC(=O)c1sc2nc3n(c(=O)c2c1C)CCC3 (configuration not stated)	inactive: 16.9%	–
COc1cccc2c1cc1c(=O)n(CC(=O)N3CCC(C)CC3)nc(C)n12	inactive: -4.09%	–
O=c1oc2ccccc2cc1-c1nc(-c2cccs2)no1	inactive: 50.3%	–
CCC(=O)Nc1sc2c(c1C(=O)Nc1ccc(Br)cc1)CCCCC2	inactive: -12.4%	–
